T1: UNK ZnF1-3 (human, UniProt Q9C0B0 31-174)
T1 sequence: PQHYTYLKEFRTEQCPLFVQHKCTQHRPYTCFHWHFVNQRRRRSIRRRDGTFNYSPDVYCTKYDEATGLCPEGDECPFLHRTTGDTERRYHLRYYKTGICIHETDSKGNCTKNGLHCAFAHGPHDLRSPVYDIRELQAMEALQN

B1: chr3:130683820:130683821:+_ENSG00000017260_ENST00000359644|hu_hu|FALSE|FALSE (ssRNA)
RNA: GGGAGUUCUACAGUCCGACGAUCACCAUCUGAAGUAAAUAUGUGAGUAACAGUCAUUUCAUUCUUCGUCAGUGUUCCAGUUUUAUCUGAACAAAUCACAUUACAGCAGCCCAGAGUUUCAACAAUAGGCAGCUUUUUCACAAUCAACAGAGGAUUGAGCAUCA
B2: 83681929_83683676_522_CDS_ENSMUSG00000032262_ENSMUST00000034796|mouse|control|control (ssRNA)
RNA: GGGAGUUCUACAGUCCGACGAUCUCCUGCGUUGUAUGAUCCCAUGAAUAGCUCUCUGAAGAUGAAAAGGUUAAGCAAAACCAUGCCAAAAUUAUAGAUUAUGAGUACUAAGCGCAUUUGGAACGGCUCGCGGUCUUUCAUCCACAACAGAGGAUUGAGCAUCA
B3: 36908727_36908847_66_3pUTR_ENSMUSG00000024811_ENSMUST00000025729|mouse|control|control (ssRNA)
RNA: GGGAGUUCUACAGUCCGACGAUCUCGGCUCCGUGAGCCCCGGCUGCCCCACCGCGGUGGAGGCAGCGCGAACCCGCUCGCCGAGCCCCGAAGCGACGCGACGGCGGAAGCGGCCGAGACCACUCCUGCCAGCUCGGUCGGGUCCAACAGAGGAUUGAGCAUCA
B4: chr7:141438946:141438947:+_ENSG00000106028_ENST00000265304|hu_mus|hu_hu_hu_mus_True|58_58 (ssRNA)
RNA: GGGAGUUCUACAGUCCGACGAUCGACGAAAUACCUGUAACACAGGUCUUCGAAACAUGGCUUCUGUUUUUCUUACAGUCUAAUCUUUAGGCUUUUCCUAAAGGAAAGAAAGAAAAGAGAAAAAUGAUAAAUCAAGAAACUACACAACAGAGGAUUGAGCAUCA
B5: chr14:59828787:59828788:+_ENSMUSG00000035469_ENSMUST00000043227|mus_hu|motif|central (ssRNA)
RNA: GGGAGUUCUACAGUCCGACGAUCGAGUGAAGAUGGGCCACUUUCCGACAUCCACCAUGACUCUGGCUUCAAGCAAUUCCGGUAAAUAAGCCGACAUCUCUGAGUCCAGGAGGUUGAGGCUGCAGUGAGCCGUGUUCACACCACCAACAGAGGAUUGAGCAUCA
B6: 6917638_6917758_248_5pUTR_ENSMUSG00000041272_ENSMUST00000039987|mouse|control|control (ssRNA)
RNA: GGGAGUUCUACAGUCCGACGAUCUUCACUCUCACAUCAAGCAACUCCUUUUCUUUUCCUUUUUGAAAAAAAAAAAAAAAAAAAAAGUGCUCAGAAAAAAAAAAAAAAGCUCAGACGGAACAGAGAGGCGUCUGGGCUCAGGAGCAACAGAGGAUUGAGCAUCA
B7: chr11:46405157:46405158:+_ENSG00000110492_ENST00000395566|hu_hu|hu_hu_hu_mus_False|58_98 (ssRNA)
RNA: GGGAGUUCUACAGUCCGACGAUCCCCUCCCCACUUUGGCUGGGGAGUGUGGGCGUGAGAGGACAGGCGUGAUUGACAAAGCUAACGGGAAGACAAAAGGCACUGGUGGGUUAUAUCUUGGGCCUGUGGGAGAGGAGGGCUCCGCAACAGAGGAUUGAGCAUCA
B8: 49097590_49098609_1169_CDS_ENSG00000008294_ENST00000262013|human|control|control (ssRNA)
RNA: GGGAGUUCUACAGUCCGACGAUCUUCUGACUUUUCUUCAUUUUCAGCAGAGCCAGUAGAUACAUUUCUAGUUUCCUGGGCUACCUGUACUUCAAUGUGUUUGCUUAUCUCUGAUUUAUUUGGCGCAUCUGUAACCUUCACAAACAACAGAGGAUUGAGCAUCA
B9: chr5:71493949:71493950:+_ENSG00000131711_ENST00000296755|hu_mus|FALSE|FALSE (ssRNA)
RNA: GGGAGUUCUACAGUCCGACGAUCUGGAGACAUUUCUGUUUCCUGGAACGUGGUAGGUGUUUGCACCACAGAAACGGACAGGGAGUCAUCAACUUCUGUGGAAUGUGGAGAACCCACCUCGGCAUGCAGAGAAGGAGACACGUCCAACAGAGGAUUGAGCAUCA
B10: chr15:76588000:76588001:-_ENSG00000140374_ENST00000560595|hu_mus|FALSE|FALSE (ssRNA)
RNA: GGGAGUUCUACAGUCCGACGAUCGGACACUUCACCUCCAAGACGUCCAGCUGCAGUGAUAGUAUUUAGAGUAAUGGGUGCUAGGGAAUCAUUUGCAUGCUCAGCUAUUACCAAGGUACUCUGAAAACGGAGCAAUGAGGCCGCCAACAGAGGAUUGAGCAUCA
B11: chr1:220276048:220276049:+_ENSG00000067704_ENST00000302637|hu_hu|hu_hu_hu_mus_True|58_108 (ssRNA)
RNA: GGGAGUUCUACAGUCCGACGAUCGCAAACAGCUUCAUUGGCGGGAAUUGUCCAAGGCUGGGUGGUCCAAACUAAAAUACUAACAGGGGAUGAGGCAUCUGUAAGAGACUCCAACUUCGGAGGAGGUCUCAGGAGGGGGAAUCUCAACAGAGGAUUGAGCAUCA
B12: chr2:48026839:48026840:+_ENSG00000116062_ENST00000540021|hu_hu|motif|central (ssRNA)
RNA: GGGAGUUCUACAGUCCGACGAUCAUAGUGUGCCACUAGAGUCCUAAAUCUCGAACAAUGGCGAUCAUCUGAAAACUGACCGGUGAAAAACUUUCCCAGUGAAGUAUCAACAAAGCACACACCAUAUGCACGAGUAUGGCCAGACAACAGAGGAUUGAGCAUCA
B13: chr5:162869536:162869537:+_ENSG00000113328_ENST00000340828|hu_hu|motif|central (ssRNA)
RNA: GGGAGUUCUACAGUCCGACGAUCAUAAUCCAGUUAAGGGACCAUUUCAGGAAUUGUUGGAAGGUGAGUUAUUCUGUAGUAGCGGUGCUUCAAUUGCCGUGCAGUACGCCCAGAAACAAUCCAUUUCAACUUCUGAACAUUUGGCAACAGAGGAUUGAGCAUCA
B14: chr14:89338683:89338684:+_ENSG00000165533_ENST00000346301|hu_hu|hu_hu_hu_mus_False|48_78 (ssRNA)
RNA: GGGAGUUCUACAGUCCGACGAUCGUGGUUGUUGUGGACCAGGGCCAGCCUGAAGCACUGAUGGGCCAAGUUUGUAUCUCCGAUUCCCACAGCUACAUGCCCCAGGUUGUACCAGACAUCAGCUGCCUCUUCUUCAUUUUCAGCCAACAGAGGAUUGAGCAUCA
B15: chr13:97419175:97419176:-_ENSMUSG00000021670_ENSMUST00000022176|mus_mus|FALSE|FALSE (ssRNA)
RNA: GGGAGUUCUACAGUCCGACGAUCUGAAACUUUACAUACAACAGCAAAGGCAAUCUUCCACAAUAAUACUGACACAAUCACUAAGAGGCUCCCAUGCUGCCGCGGCACUCUUGGAAUGUCUUUCAGAGUCCAUCUUCUACACAACAACAGAGGAUUGAGCAUCA
B16: 31071505_31071625_3404_3pUTR_ENSMUSG00000000194_ENSMUST00000056433|mouse|control|control (ssRNA)
RNA: GGGAGUUCUACAGUCCGACGAUCCCCAUUCCCCCGCCAUGCCUGGCUUCCCACCUACAGCAGUUCCAGGGCAAGACUUGGGAGGAUACUGCUGUAGCACACCUCCCAGCCCGUGCACCCAUGCCCUGGAAGGAGCAGGCUGUCCAACAGAGGAUUGAGCAUCA
B17: chr9:3385818:3385819:+_ENSMUSG00000025899_ENSMUST00000053407|mus_hu|FALSE|FALSE (ssRNA)
RNA: GGGAGUUCUACAGUCCGACGAUCGAUUUACUACAUUUAGUAGCACUUUACUAAAAAACUAUUAUCUUCAAAAUCCUGGGCUCUUACCCAAGAAUUACAAACACUGCACAAACUGCUUCAAUCACUUUUAGAAACCACCUCUCCCAACAGAGGAUUGAGCAUCA
B18: chr10:1038518:1038519:+_ENSG00000107937_ENST00000545048|hu_hu|hu_hu_hu_mus_False|28_28 (ssRNA)
RNA: GGGAGUUCUACAGUCCGACGAUCCAGUCUGUCAUGGUAAUUCUGUUGAGUAAAUUUGACUUUUCUCAUAUAAAAAUGUCGAAUCCGAUGAAUUUGAUAAUGUUUAUGAAUAACGGUUGGAGUCUUUCGUUGAGUCUUGGAUAACAACAGAGGAUUGAGCAUCA
B19: chr1:157160411:157160412:-_ENSMUSG00000026469_ENSMUST00000027741|mus_hu|motif|central (ssRNA)
RNA: GGGAGUUCUACAGUCCGACGAUCGAAUUCAAUCAGAAGAAAGCCACCCCGAUAGAUUCUUAUCAAGGGCCAUAUACUUCGGUCUGUUUCAAGUUUAAAUACAGCGGCAAGCACAAGGGUAAUAUUCAGUACAAUGAAUAUUCCCAACAGAGGAUUGAGCAUCA
B20: chrX:98862621:98862622:+_ENSMUSG00000034160_ENSMUST00000044475|mus_hu|mus_mus_mus_hu_False|8_8 (ssRNA)
RNA: GGGAGUUCUACAGUCCGACGAUCCUGCAUCUCCUUUAGAGUGUUUCCCAUAUUAGAGUAGGCAUCAGCAAAGGUAGGACUGAUUCGAAUAGCCUCCUUAUAAUGCAUCAGAGCUUCCUGCAGUUUUCCCUGCUGUUGCAGUACCAACAGAGGAUUGAGCAUCA
B21: 86271393_86272742_3322_3pUTR_ENSG00000068654_ENST00000263857|human|control|control (ssRNA)
RNA: GGGAGUUCUACAGUCCGACGAUCCACGACCAGCCCCUCUAGGUGCUUGAUGAUGCACCUUUGGAGAUAGCCUGAGCGGCUGGUUUUCACAGCAGUGUCCACCAGGCCCUCUCGUCCUGCCAUGCAGUGGAAGAAGAACUCAGGCAACAGAGGAUUGAGCAUCA
B22: chrX:69798090:69798091:-_ENSMUSG00000031343_ENSMUST00000055966|mus_mus|mus_mus_mus_hu_False|28_28 (ssRNA)
RNA: GGGAGUUCUACAGUCCGACGAUCAAGUCCCCGGGUUCUUGUCGUCUUGAUUCCCCUUGACCAGUGGUUCCAGGGAGAAUAUUAAUCAGGAAAAGAAUCCCAAGGCUGGUCACAUAACAGUGACUUGUUUGUGUGAUUAUCAUCCAACAGAGGAUUGAGCAUCA

Some of the results follow.

The target in this assay is T1, UNK ZnF1-3. The assay can be described thus: nsRBNS (natural sequence RNA bind-n-seq); RBNS binding buffer (assumed for nsRBNS): 25 mM Tris pH 7.5, 150 mM KCl, 3 mM MgCl2, 0.01% Triton X-100, 500 ug/ml BSA, 20 U/ml SUPERase-In, 4 C; UNK is unkempt and MSI1 is Musashi-1; names of the RNAs are library labels; protein concentration not given here; high values mean tight binding.
Molecule B1 came in with a binding signal of 1.17 enrichment R.

In the case of B2, the binding signal was 1.16 enrichment R. As to B3, the binding signal came out at 0.195 enrichment R. To B4 belongs 0.51 enrichment R. As for B5, the binding signal is 1.02 enrichment R. Regarding B6, the binding signal worked out at 1.01 enrichment R.

B7 yielded a binding signal of 2.32 enrichment R.

The molecule B8 had a binding signal of 0.473 enrichment R.

Molecule B9 yielded a binding signal of 0.912 enrichment R.

On to B10, for which the binding signal amounted to 1.4 enrichment R. In turn, B11 displayed a binding signal of 2.09 enrichment R.

Regarding B12, the binding signal amounted to 1.25 enrichment R.

B13 returned a binding signal of 0.651 enrichment R. Molecule B14 came in with a binding signal of 0.76 enrichment R.

As for B15, the binding signal was 1.16 enrichment R. B16: the binding signal was 0.746 enrichment R. In turn, B17 showed a binding signal of 1.34 enrichment R. Consider B18, for which the binding signal worked out at 0.717 enrichment R. B19: the binding signal was 1.22 enrichment R. For B20, the binding signal worked out at 1.17 enrichment R. Molecule B21 yielded a binding signal of 0.588 enrichment R. As for B22, the binding signal was determined as 0.537 enrichment R.

(Values after article PMC12136788.)
